In all, about 45,000 compounds went through this assay and about 200 (0.44%) were called active. Inconclusive results (about 7%) are left out. Calls follow the shape of the dose curve; as a rule, active = well fitted activation curve with a large enough effect; inconclusive = small, poorly fitted or top-dose-only effect; inactive = no such curve, though single readings can be large or run the other way. This is one part of the list.
Experiment: qHTS of TDP-43 Inhibitors: NCGC Sytravon Library Screen; also: 0% is about no effect; nearly all actives have a fitted effect of over 55% in size
Conditions: yeast TDP-43 toxicity rescue, BacTiter-Glo growth, 24 h; series mostly up to 46.1 µM; growth rescue (activation): at the top concentration
Procedure, shortened: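 TDP-43-expressing yeast, pregrown in raffinose, seeded at OD600 0.02 in galactose medium with compound for 24 hr at 30 deg C. Growth read by BacTiter-Glo luminescence, so rescue of toxicity appears as activation.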

| Compound | growth rescue (activation) |
| --- | --- |
| COc1ccc(N(C(=O)c2csnn2)C(C(=O)NC2CCCC2)c2cccs2)cc1 (centres undefined) | inactive: 12.9% |
| CC(=O)c1ccc(OCC(=O)c2ccc(-c3ccccc3)cc2)cc1 | inactive: 28.4% |
| CCC1CCCCN1CCN1C(=O)C2C(C(=O)Nc3cccc(OC)c3)C3C=CC2(O3)C1C(=O)NC1CCCCC1 (centres undefined) | inactive: 11.5% |
| CNC(=O)c1cc(Nc2nnc(-c3ccc(O)cc3)c3ccccc23)ccc1OC | inactive: 5.94% |
| Cn1c2ccccc2c2nnc(SCC(=O)NC3CC3)nc21 | inactive: 11.9% |
| Cc1ccccc1NC(=O)CSCCN1C(=O)c2ccccc2C1=O | inactive: 14.8% |
| Cc1ccc(C(=O)NC(NCc2ccco2)C(Cl)(Cl)Cl)cc1 (centres undefined) | inactive: 23.3% |
| CC(C)NC(=O)c1ccc(-c2cccc(C(F)(F)F)c2)o1 | inactive: 34.6% |
| Cc1ccc(S(=O)(=O)N2CCCCC2)cc1NC(=O)c1cc(F)c(F)c(F)c1F | inactive: 25.2% |
| O=C(Nc1ccc(S(=O)(=O)N2CCCCC2)cc1)C1CC(=O)N(c2ccc(F)cc2)C1 (centres undefined) | inactive: -0.0181% |
| COc1ccc(C(=O)Cn2c(NCCO)nc3ccccc32)cc1 | inactive: -12.1% |
| COc1ccc([N+](=O)[O-])cc1N(CC(=O)NCc1ccco1)S(C)(=O)=O | inactive: -9.45% |
| COc1ccccc1C(=O)N/C(=C\c1ccccc1)C(=O)NC(Cc1ccccc1)C(=O)O (centres undefined) | inactive: 10.6% |
| O=C(NC1CC1)C1CC(=O)N(c2ccc(F)cc2)C1 (centres undefined) | inactive: 8.34% |
| CC(=O)c1ccc(N2CCN(S(=O)(=O)c3ccc4c(c3)CC(C)N4C(C)=O)CC2)cc1 (centres undefined) | inactive: -4.1% |
| CCN(CC(=O)Nc1sc2c(c1C#N)CCC(C)C2)Cc1nc2ccccc2c(=O)[nH]1 (centres undefined) | inactive: 10.8% |
| Cc1cc(C)n(-c2nc3c(c(=O)n(C)c(=O)n3C)n2C)n1 | inactive: -7.29% |
| COC(=O)c1ccccc1NC(=O)C1CCCO1 (centres undefined) | inactive: 9.61% |
| CCOc1ccc2nc(N3C(=O)CNC3=S)sc2c1 | inactive: -8.79% |
| Cn1c(C(=O)N2CCN(c3ccc([N+](=O)[O-])cc3)CC2)cc2c(=O)[nH]c3ccccc3c21 | inactive: -13.2% |
| CC(C)(C)c1ccc(CC(=O)N2CCC2(C)C(=O)NS(=O)(=O)c2ccccc2Cl)cc1 (centres undefined) | inactive: 7.11% |
| O=C(O)c1cc(Cl)c(Cl)cc1C(=O)Nc1cccc2ncccc12 | inactive: 5.44% |
| Oc1ccc(Br)cc1/C=N/NC(=S)NCCc1ccccc1 | inactive: -0.0678% |
| COC(=O)c1ccc(NC(=O)Nc2ccc(OC)cc2)cc1 | inactive: 20.6% |
| N#CCCN(C(=S)NC(=O)C1CCCCC1)c1ccccc1F | inactive: 0.676% |
| Cc1nnc(SCC(=O)Nc2ccc([N+](=O)[O-])cc2)n1CC1CCCO1 (centres undefined) | inactive: 0.0871% |
| Cc1oc(-c2ccoc2)nc1CN(CC1CCC(=O)N1)C(C)C (centres undefined) | inactive: 10.1% |

| Compound | growth rescue (activation) |
| --- | --- |
| CCC(C)c1ccccc1NC(=O)COC(=O)c1ccc(N2CCCC2)c([N+](=O)[O-])c1 (centres undefined) | inactive: 9.4% |
| Cc1nc(SCc2ccc(O)c([N+](=O)[O-])c2)n[nH]1 | inactive: 5.62% |
| CCOC(=O)Cc1csc(NC(=O)CSc2nc(-c3ccccc3)c(C#N)c(=O)[nH]2)n1 | inactive: 8.83% |
| CCOC(=O)C1(C(F)(F)F)N=C(C(F)(F)F)Nc2ccc(F)cc21 (centres undefined) | inactive: -8.68% |
| CC(=O)N(Cc1ccccc1)Cc1cn(CCC#N)nc1-c1cccc([N+](=O)[O-])c1 | inactive: 19% |
| CCCCNC(=O)N1CCN(c2ccccc2OC)CC1 | inactive: 10.4% |
| CC1(C(=O)NS(=O)(=O)c2cccc(OC(F)F)c2)CCN1C(=O)c1ccco1 (centres undefined) | inactive: 15.4% |
| CC(=O)CNc1ccc(S(=O)(=O)N/N=C/c2ccccc2)cc1 | inactive: -8.8% |
| CC(C)(C)c1ccc(OCC(=O)NCCN2CCOCC2)cc1 | inactive: -3.79% |
| N#CC(c1ccccn1)c1ncc(C(F)(F)F)cc1Cl (centres undefined) | inactive: 5.43% |
| Cc1cc(C)cc(NC(=O)C(=O)NCc2ccccn2)c1 | inactive: 6.43% |
| Cc1[nH][nH]c(=O)c1C(c1ccc(-c2cccc(C(=O)O)c2)o1)c1c(C)[nH][nH]c1=O | inactive: -14.1% |
| O=C(NC1=NCCS1)C12CC3CC(CC(C3)C1)C2 | inactive: 13.3% |
| C=CCOc1ccccc1CN1CCCC(CCC(=O)N(C)CCc2ccccn2)C1 (centres undefined) | inactive: 13.9% |
| COc1ccc(OCC2CCCN(Cc3nc(CC4CC4)no3)C2)cc1 (centres undefined) | inactive: 16.9% |
| COc1ccc(CC(=O)Nc2ccc(S(=O)(=O)Nc3cc(OC)nc(OC)n3)cc2)cc1 | inactive: -1.26% |
| Cc1cccc(C(=O)NC(=S)Nc2ccccc2C(F)(F)F)c1 | inactive: 19.5% |
| Cc1cc(C(F)(F)F)n(-c2nc(C(=O)NNS(=O)(=O)c3ccccc3[N+](=O)[O-])cs2)n1 | inactive: 12.8% |
| Fc1ccc(C2Nc3cccc4cccc(c34)N2)cc1 | inactive: -11.5% |
| CC(=O)c1ccc2noc(-c3ccccc3)c2c1 | inactive: 18.9% |
| CC(C)OC(=O)c1ccc(COC(=O)c2cccc(-c3nnc(-c4ccccc4)o3)c2)cc1 | inactive: -18.3% |
| O=C(COc1cccc(C(F)(F)F)c1)Nc1nnc(C2CC2)s1 | inactive: 1.42% |
| CN(C)S(=O)(=O)c1ccc2c(c1)nc(CCC(=O)NCc1ccc(Cl)cc1)n2C | inactive: -17.2% |
| Cc1ccc(C(=O)OCC(=O)c2ccc(CC(=O)N3CCOCC3)s2)c(C)c1 | inactive: 2.17% |
| COc1ccc(-c2noc(-c3ccoc3C)n2)cc1 | inactive: 9.29% |
| CCNC(=O)C1(C)CCCN(Cc2csc(-c3ccc(Cl)cc3)n2)C1 (centres undefined) | inactive: 9.45% |
| CCOC(=O)Cn1c(=O)c2c(nc3n2CCN3c2ccc(CC)cc2)n(C)c1=O | inactive: 2.42% |
